From article PMC12136788
This is one part of the list.

T1: UNK ZnF1-3 (human, UniProt Q9C0B0 31-174)
T1 sequence: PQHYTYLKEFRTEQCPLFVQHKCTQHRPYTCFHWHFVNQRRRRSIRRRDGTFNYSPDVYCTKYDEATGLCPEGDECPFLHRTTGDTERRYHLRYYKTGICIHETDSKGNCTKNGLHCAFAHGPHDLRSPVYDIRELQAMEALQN

B1: chr7:135612270:135612271:-_ENSG00000105887_ENST00000393085|hu_mus|hu_hu_hu_mus_False|8_58 (ssRNA)
RNA: GGGAGUUCUACAGUCCGACGAUCGUUUUUUUCUGAGAUGUUAAAUAGUACUUCAGUGGAAAACAAAACUUAACCUUUCGCUAAUGCGUGUUGUACCAAAAGCAGACAUUUUAGCUUCAUUUAUUCACUCAAAAUAUCAUUAAGCAACAGAGGAUUGAGCAUCA
B2: chr1:220276048:220276049:+_ENSG00000067704_ENST00000302637|hu_hu|hu_hu_hu_mus_True|1_18 (ssRNA)
RNA: GGGAGUUCUACAGUCCGACGAUCGCAAAUUGCCUGGUUGGCGGGAAUUGUCCAAGGCUGGGUGGUCCAAACUAAAACGCUAACAGGGGAUGAGGCAUCUGUAAGAGACUCCAACUUUGGAGAAGGCCUCAGGAGGGGAAAUUUCAACAGAGGAUUGAGCAUCA
B3: chr4:48472875:48472876:-_ENSMUSG00000028345_ENSMUST00000030030|mus_mus|motif|central (ssRNA)
RNA: GGGAGUUCUACAGUCCGACGAUCACUGUUCAAUCUAGUGCCACCUUUAAGGGUCUCCGUCACAAACUUCCUUAUUGUUUCGGUCCAACUGGAAUCAUUCUGUAAGGUUGAAGCAUUUGCCAGCGAGACCAUGAUAUCAGACAGCAACAGAGGAUUGAGCAUCA
B4: chr15:75216061:75216062:-_ENSG00000178741_ENST00000564811|perfect_dup|FALSE|FALSE (ssRNA)
RNA: GGGAGUUCUACAGUCCGACGAUCUUUGUCAAGGCCCAGUUCCUCCGGAGUGGAGAUUCCCAGUUCAUUUAAAGUUGGUCUAAGUUCCUGGAUGACAUAGGGGUAGAUUUCCUUAUGAGGUCCUGCUUUGUCCUUAACAACCUCCAACAGAGGAUUGAGCAUCA
B5: 32954790_32955657_1719_CDS_ENSG00000178904_ENST00000392250|human|control|control (ssRNA)
RNA: GGGAGUUCUACAGUCCGACGAUCUACUGAAUAUCGCAUUAUACAUAUCCUCUUUGGGUUAUAAAGAUGGACUGACUUCAGAAGUAACUCCCAUAUUUCAGGGCUACAUAGGCCGAAUGAUGCGAACACACACAUGUGUGACGUCAACAGAGGAUUGAGCAUCA
B6: chr11:46405157:46405158:+_ENSG00000110492_ENST00000395566|hu_hu|hu_hu_hu_mus_False|58_68 (ssRNA)
RNA: GGGAGUUCUACAGUCCGACGAUCCCCUCCCCACUUUGGGCACUUGGUGUGGGCGUGAGAGGACAGGAUGAUUGAUUAAAGCUAACGGGAAGACAAAAGGCACUGGUGGGUUAUAUCUUGGGCCUGUGGGAGAGGAGGGCUCCGCAACAGAGGAUUGAGCAUCA
B7: chr12:39756943:39756944:-_ENSG00000139116_ENST00000544797|hu_mus|hu_hu_hu_mus_False|8_58 (ssRNA)
RNA: GGGAGUUCUACAGUCCGACGAUCGGUUUGGCUGUUACCCCCAAGGGAAUCCUGCAAGAGUCUUGUCAGCUUAGAGUCUCUAUAGGGGACAUGGGUGGCUCUCUUGCUCUUGUCCCCCAAGGCGCUGAUUACAUUGCCAAGAGCCAACAGAGGAUUGAGCAUCA
B8: chr17:64801638:64801639:+_ENSG00000154229_ENST00000413366|hu_mus|hu_hu_hu_mus_False|8_8 (ssRNA)
RNA: GGGAGUUCUACAGUCCGACGAUCUAUAUAUAUAUAUACAUAUGUACACAUAUAUAGUAAAACCCUAGUUAAACGUGUAAAGUAGCCAUUCAUUUUUAAAAUUACAUCUACAUUAAAAAAUUAAUAUAUCUGAUACAGUGCCAGCAACAGAGGAUUGAGCAUCA
B9: chr3:105540709:105540710:-_ENSMUSG00000068798_ENSMUST00000090678|mus_hu|motif|central (ssRNA)
RNA: GGGAGUUCUACAGUCCGACGAUCUCUGACCAGGUCAUAAAAUAUCUCAUUAACAUUGAUCUUUGACUUUGCAGAAGAUUCGGAAAAGGCACAGUUACACCACUGUCUUGCUAAAUUCUGGCCCUGCUCUUUGCCAACUACUCGCAACAGAGGAUUGAGCAUCA
B10: 43428741_43428998_1889_CDS_ENSG00000052841_ENST00000039989|human|control|control (ssRNA)
RNA: GGGAGUUCUACAGUCCGACGAUCAGCCCUCUGAAGACAGGCAAUAGCAAAAGUGCUAUUUCCUACUGCUCUCCAGUAUAGUCCAGCUUCAUUGAGUAUGAGCCAGAUAGGAGCAUUUGGCUUAUUAAUAGCAUGAAAUAAGAACAACAGAGGAUUGAGCAUCA
B11: chr1:58468927:58468928:-_ENSMUSG00000026034_ENSMUST00000148330|mus_mus|mus_mus_mus_hu_False|8_38 (ssRNA)
RNA: GGGAGUUCUACAGUCCGACGAUCAAUUACUGAAAAAGAUGUUCAUUACCUUAGCUAUGUACUUAAUGAACCAAAUUACCCAAACAAAAUAAACAUGUUUACAAAUUAAUGUUAAGAAUUUACAAAGAUUAAAAGCUUAACUUACAACAGAGGAUUGAGCAUCA
B12: chr4:140556289:140556290:+_ENSMUSG00000036622_ENSMUST00000037055|mus_mus|mus_mus_mus_hu_False|1_8 (ssRNA)
RNA: GGGAGUUCUACAGUCCGACGAUCGAUGGAGCUCACCAGGCCCCCUUUUGCCGUGCAGAACCCUGUGCGGGUCACCACUGCCAGGACGUGCGGUCCCACAUAGGCCCGGGCCUGCAAGAUGAGGGUCCCACAGAAGAGGGUGUGCAACAGAGGAUUGAGCAUCA
B13: chr9:95013113:95013114:-_ENSG00000196305_ENST00000443024|hu_hu|hu_hu_hu_mus_False|78_98 (ssRNA)
RNA: GGGAGUUCUACAGUCCGACGAUCCUCAGUCAGAAAGGGUGUGUAGGGGGCCAUCAGUCUGCAAAGAGAAAGCAGGACACUGAACAGUGUCUCCAGAGCCAUGACACAGUCUUCCACCCCACUCUCACCCUUUAACCUCCUCCUCAACAGAGGAUUGAGCAUCA
B14: chr14:21343309:21343310:-_ENSMUSG00000021816_ENSMUST00000161445|mus_hu|FALSE|FALSE (ssRNA)
RNA: GGGAGUUCUACAGUCCGACGAUCAGGAUCGGACCAUAACAAGUCACACAUUGGUCCAAAUGCAGGUGGCUCUUUGAAUCUAUCUAAUCUCCUAAUAUCAUCCAGUGUGUGUAUUUCUGGUGAAAGUCCACCAUGAACACAAAGCAACAGAGGAUUGAGCAUCA
B15: chr12:25362807:25362808:-_ENSG00000133703_ENST00000311936|hu_hu|FALSE|FALSE (ssRNA)
RNA: GGGAGUUCUACAGUCCGACGAUCUUUCUUCUUUUUACCAUCUUUGCUCAUCUUUUCUUUAUGUUUUCGAAUUUCUCGAACUAAUGUAUAGAAGGCAUCAUCAACACCCUGUCUUGUCUUUGCUGAUGUUUCAAUAAAAGGAAUCAACAGAGGAUUGAGCAUCA
B16: chr14:76904430:76904431:+_ENSMUSG00000022010_ENSMUST00000022587|mus_mus|mus_mus_mus_hu_True|1_48 (ssRNA)
RNA: GGGAGUUCUACAGUCCGACGAUCUGCAGCCAAAAACACCCUCGUGGAAAAAAAGAGGGAACACCAGCAGCCUUGUAUAAGCUAGAUAAAACCGCCUGGCUUUCCGCAGCCCAGGGAGAAACAGAAAACGGCAGCCCUCGAGUGCAACAGAGGAUUGAGCAUCA
B17: chr1:225611761:225611762:-_ENSG00000143815_ENST00000272163|hu_mus|hu_hu_hu_mus_True|28_108 (ssRNA)
RNA: GGGAGUUCUACAGUCCGACGAUCCCAGGCCAUCGACCUCUGACCACUUCACCCUCAACAAACUUCCUACUUGGCAUUUUCUAAAAUUAGUCUGGCCGCGCUCCGGCCGGUGACACGGCCACUCCAGGACAGUCACCAGCAGCCCAACAGAGGAUUGAGCAUCA
B18: chr2:202488911:202488912:-_ENSG00000155755_ENST00000286196|hu_mus|hu_hu_hu_mus_False|38_58 (ssRNA)
RNA: GGGAGUUCUACAGUCCGACGAUCAUUGAAACAUUUUUCAUAAUCUCCAGUAGCAUUUCAGCAUUAUGUAACAAAAGAUCUAUUACAAAUACAUGUAUAUACAUCUUAUACACUUAAAAACACGAGUGGGGAGCGCAGGCGCCACAACAGAGGAUUGAGCAUCA
B19: chr19:10591827:10591828:-_ENSMUSG00000024668_ENSMUST00000025570|mus_mus|FALSE|FALSE (ssRNA)
RNA: GGGAGUUCUACAGUCCGACGAUCUUCAAUCAUGUCUUUUUGAGAGUCUGUUGGGCUGUCACCUCUGUAGAAGCGUCUGAAUGAUGUCACACUAGGCAAGGGAGACAGCAGACUGUGCUUUGACAGUGCCCGCGCCAGCGUCGGCAACAGAGGAUUGAGCAUCA
B20: 78432385_78432637_487_CDS_ENSG00000162613_ENST00000370768|human|control|control (ssRNA)
RNA: GGGAGUUCUACAGUCCGACGAUCUUCAGGUGUUCCAGUUAACAUACAGGACCUUUCUGGAAGGCCACCACUGUCAGGAGCUAUCUGUAUUUUGCAUCCAGAUUCCUGUUGUAUGCGUGAGAUCUGUUCACCUCCUCUGCCAAUCAACAGAGGAUUGAGCAUCA
B21: chr11:86535762:86535763:-_ENSMUSG00000047126_ENSMUST00000103186|mus_mus|motif|central (ssRNA)
RNA: GGGAGUUCUACAGUCCGACGAUCUGCAAAGCACUGGAUGACUUUAUUAGGUACAUUGGCCCUGAGGUAAACACUCAGUGCGGAUGUUGGGUCCACAGAUUUAACGAGAUCACCCAGUUCUUCAGAACAUUCCAGCUUAUCUUCCAACAGAGGAUUGAGCAUCA
B22: 122916881_122917777_1671_CDS_ENSMUSG00000029467_ENSMUST00000031423|mouse|control|control (ssRNA)
RNA: GGGAGUUCUACAGUCCGACGAUCGGCUAACUCUACAAGCCCGUCAUACUGAUGGCACUUCACUGGCUUAUCAUCCUUUUGCACUUCUCCAAUUGGUGCAUAUGUGGAUCCAGUUAUGCUGAACUCAUUAAGGGAACAAGUGUCCAACAGAGGAUUGAGCAUCA

The binders below were run against T1, UNK ZnF1-3 (assay: nsRBNS (natural sequence RNA bind-n-seq); RBNS binding buffer (assumed for nsRBNS): 25 mM Tris pH 7.5, 150 mM KCl, 3 mM MgCl2, 0.01% Triton X-100, 500 ug/ml BSA, 20 U/ml SUPERase-In, 4 C; UNK is unkempt and MSI1 is Musashi-1; names of the RNAs are library labels; protein concentration not given here; high values mean tight binding).

Point of comparison: B9, binding signal 1.08 enrichment R. Against it:
- B1 — lower, 0.462 enrichment R
- B2 — higher, 2.49 enrichment R
- B3 — lower, 0.832 enrichment R
- B4 — lower, 0.551 enrichment R
- B5 — lower, 0.522 enrichment R
- B6 — higher, 2.05 enrichment R
- B7 — lower, 0.655 enrichment R
- B8 — higher, 1.72 enrichment R
- B10 — higher, 1.51 enrichment R
- B11 — lower, 0.974 enrichment R
- B12 — lower, 0.756 enrichment R
- B13 — higher, 1.19 enrichment R
- B14 — lower, 0.748 enrichment R
- B15 — lower, 0.454 enrichment R
- B16 — higher, 1.8 enrichment R
- B17 — higher, 1.18 enrichment R
- B18 — lower, 0.766 enrichment R
- B19 — lower, 0.794 enrichment R
- B20 — lower, 0.709 enrichment R
- B21 — lower, 0.645 enrichment R
- B22 — lower, 0.382 enrichment R
